Consider 88 compounds from publication PMC4336329 (PLoS ONE, 2015).

In all, about 310,000 compounds went through this assay and about 14,000 (4.5%) showed an effect of 50% or more. Effects have a minus sign here. The list shows a part of the results.
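Also: peak tail current of the secondary pulse compared with the same well before compound.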

Sequence of human ether-à-go-go-related gene (hERG) potassium channel (Q12809 whole entry, looked up): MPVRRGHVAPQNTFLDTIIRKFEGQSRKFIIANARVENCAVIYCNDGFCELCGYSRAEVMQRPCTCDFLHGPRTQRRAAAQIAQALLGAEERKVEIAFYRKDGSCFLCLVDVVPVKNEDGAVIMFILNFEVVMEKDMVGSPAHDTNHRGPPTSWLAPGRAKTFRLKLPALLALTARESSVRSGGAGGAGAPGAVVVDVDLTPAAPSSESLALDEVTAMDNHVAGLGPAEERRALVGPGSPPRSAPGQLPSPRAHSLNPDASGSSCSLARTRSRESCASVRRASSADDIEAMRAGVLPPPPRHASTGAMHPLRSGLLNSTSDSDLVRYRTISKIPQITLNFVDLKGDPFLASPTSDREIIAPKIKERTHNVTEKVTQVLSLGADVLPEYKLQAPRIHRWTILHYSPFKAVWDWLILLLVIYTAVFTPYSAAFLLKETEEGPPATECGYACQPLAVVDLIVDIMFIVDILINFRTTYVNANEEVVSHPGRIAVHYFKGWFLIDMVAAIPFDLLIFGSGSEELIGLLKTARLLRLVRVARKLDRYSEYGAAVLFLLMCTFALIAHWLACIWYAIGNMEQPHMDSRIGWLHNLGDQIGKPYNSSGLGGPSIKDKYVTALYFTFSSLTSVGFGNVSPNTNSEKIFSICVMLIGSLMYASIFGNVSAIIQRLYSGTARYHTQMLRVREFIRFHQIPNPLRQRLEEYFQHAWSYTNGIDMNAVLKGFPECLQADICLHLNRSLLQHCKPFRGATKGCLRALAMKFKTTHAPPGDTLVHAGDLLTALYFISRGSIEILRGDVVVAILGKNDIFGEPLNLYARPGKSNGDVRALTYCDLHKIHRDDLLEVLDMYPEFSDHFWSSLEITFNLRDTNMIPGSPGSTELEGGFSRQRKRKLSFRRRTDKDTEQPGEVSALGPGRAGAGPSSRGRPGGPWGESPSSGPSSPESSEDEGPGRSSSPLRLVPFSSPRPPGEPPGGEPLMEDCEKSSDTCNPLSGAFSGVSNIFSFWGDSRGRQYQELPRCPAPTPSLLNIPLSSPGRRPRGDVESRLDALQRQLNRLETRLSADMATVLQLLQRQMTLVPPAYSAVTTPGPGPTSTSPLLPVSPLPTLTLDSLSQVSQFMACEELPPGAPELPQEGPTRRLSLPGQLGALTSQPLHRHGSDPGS

The test addresses human ether-à-go-go-related gene (hERG) potassium channel (human, UniProt Q12809). The test can be described thus: primary screen, population patch clamp on CHO cells stably expressing hERG.
With `CCC(C)(C)NC(=O)C1CCN(c2nc(C)cc(C)n2)CC1`, the “hERG current change (%, negative = inhibition) at 10uM” value came to 8.36%.
On to `O=C(NCc1cccc(Cl)c1)C1CCN(S(=O)(=O)c2ccc(F)cc2)CC1`, for which the “hERG current change (%, negative = inhibition) at 10uM” value is reported as -12%.
For `COc1cc(/C=N/NC(=O)CN2CCCCC2)ccc1OCc1ccc(Br)cc1`, the “hERG current change (%, negative = inhibition) at 10uM” value was -59%.
The same measure for `CC(C)(C)NC(=O)C(c1ccc(O)cc1)N(Cc1ccccc1)C(=O)CCC(=O)Nc1nccs1` (stereo not shown): 5.02%; for `CCOc1ccc(NC(=O)C2=C(C)NC(=S)NC2c2ccc(O)c(OC)c2)cc1` (stereo not shown): 6.09%; for `CC(C)C[C@H](NC(=O)c1nc[nH]c1C(=O)NC1CC[NH2+]CC1)C(=O)OC(C)(C)C.[Cl-]`: 22.9%.
As to `Cc1ccc(CNC(=O)COC(=O)CCOc2ccc(C)cc2)cc1`, the “hERG current change (%, negative = inhibition) at 10uM” value is listed as 5.6%.
For `CNC(=S)N(Cc1ccc(OC)cc1)Cc1cc2cccc(C)c2[nH]c1=O` the value was 0.535%.
For `COc1cc(C(=O)Nc2ccc3oc(-c4cccnc4)nc3c2)cc(OC)c1OC` the value was 10.5%; for `CCCC12CN3CC(C)(CN(C1)C3c1ccc3c(c1)OCO3)C2=O` (stereo not shown), -10.9%; for `Cc1ccc(OS(=O)Nc2cccc3nccnc23)cc1` (stereo not shown), -18.6%.
On to `Nc1cccnc1Sc1ccc(Cl)cc1`, for which the “hERG current change (%, negative = inhibition) at 10uM” value is recorded as -14.9%.
As to `Cc1c(C)c2ccc(OCC(=O)N3CC[C@@]4(O)CCCC[C@H]4C3)c(C)c2oc1=O`, the “hERG current change (%, negative = inhibition) at 10uM” value is recorded as -0.536%.
For the compound `Cc1ccc(C(C)C)cc1NC(=O)Nc1ccc([N+](=O)[O-])cc1`, the “hERG current change (%, negative = inhibition) at 10uM” value was 21.4%.
On to `Cc1cc(C)cc(NC(=O)C2CCCN(S(=O)(=O)c3ccc4[nH]c(=O)ccc4c3)C2)c1` (stereo not shown), for which the “hERG current change (%, negative = inhibition) at 10uM” value is -8.13%.
For the compound `O=C(Cn1c(=S)[nH]c2ccccc2c1=O)N1CCN(c2ccccc2)CC1`, the “hERG current change (%, negative = inhibition) at 10uM” value amounted to 14.3%.
The same measure for `O=C(Nc1cccc(F)c1)/C(=C/c1ccco1)NC(=O)c1ccco1`: -23.8%; for `Cc1ccccc1C(=O)Nc1ccc(N2CCN(C(=O)c3ccco3)CC2)cc1`: -4.23%; for `Cc1ccc(S(=O)(=O)N(CC(=O)Nc2ccccc2C(=O)O)c2cccc(Cl)c2C)cc1`: 3.29%.
The same measure for `Cc1nc2ccccc2n1CC(=O)NCCN1CCCC1`: -1.4%; for `O=C(COc1ccc(Cl)cc1Cl)NC(=S)Nc1ccccc1C(=O)O`: 19.9%.
For `COc1ccc(C2=Nn3c(nnc3-c3ccccn3)SC2)cc1OC` the value was -34.3%; for `CN(C(=O)Nc1cnc2ccccc2c1)c1ccccc1`, -3.36%; for `CCn1c2ccccc2c2nnc(SCCN3CCOCC3)nc21`, 3.2%.
With `CSc1nsc(SCC(=O)Nc2cccc(NC(C)=O)c2)n1`, the “hERG current change (%, negative = inhibition) at 10uM” value was found to be 3.67%.
For `Cc1ccc(CN2CC(C(=O)N3CCN(c4ccccc4O)CC3)CC2=O)cc1` (stereo not shown), the “hERG current change (%, negative = inhibition) at 10uM” value is reported as -6.43%.
The same measure for `COc1ccc(-n2c(CNC(=O)c3cccs3)n[nH]c2=S)cc1`: 27.7%; for `CC1CCCCC1NC(=O)COC(=O)c1c2c(nc3ccccc13)/C(=C/c1ccco1)CC2` (stereo not shown): -2.63%.
Take `O=C(O)c1cccc(NC(=S)N/N=C/c2cccnc2)c1`: the “hERG current change (%, negative = inhibition) at 10uM” value worked out at 9.92%.
For `COc1cc(C(=O)NC(=S)Nc2nccs2)cc(OC)c1OC` the value was 17.7%.
For `CCCn1c(SCC(=O)NCc2cccs2)nc2c1c(=O)n(C)c(=O)n2C`, the “hERG current change (%, negative = inhibition) at 10uM” value is given as -2.03%.
Turning to `OCCCn1c(-c2ccccc2)n[nH]c1=S`, the “hERG current change (%, negative = inhibition) at 10uM” value turned out to be 11.8%.
The same measure for `CC(=O)Nc1cccc(OC(=O)c2ccoc2C)c1`: 0.497%; for `O=C(CN1CCN(C(=O)c2cncn2-c2ccccc2)CC1)Nc1ccccc1Cl`: -77.3%; for `CSc1cccc(NC(=O)CCNC(=O)c2ccco2)c1`: 7.19%.
As for `O=C1c2ccccc2C(=O)N1Cc1nc(-c2ccccc2)no1`, the “hERG current change (%, negative = inhibition) at 10uM” value was determined as 12.1%.
The same measure for `O=C(OCC(=O)N(Cc1ccccc1)C1CCS(=O)(=O)C1)c1cc2c(s1)CCCC2` (stereo not shown): 2.71%; for `S=C1NCN(Cc2cccnc2)CN1c1cccc(Cl)c1`: -1.87%; for `Cc1occc1-c1nnc(SCC(=O)Nc2nccs2)n1CCc1ccccc1`: -60.3%.
For `CCCOC(=O)c1c(-c2ccc(C)cc2C)csc1NC(=O)C1C2CCC(O2)C1C(=O)O` (stereo not shown), the “hERG current change (%, negative = inhibition) at 10uM” value was -0.946%.
The same measure for `COc1ccc(N2C(=O)NC3CC2(C)Oc2ccc(Br)cc23)cc1OC` (stereo not shown): 6%.
Turning to `Cn1c(-c2ccc(Cl)nc2)nc2cc(Cl)ccc21`, the “hERG current change (%, negative = inhibition) at 10uM” value is -9.09%.
The same measure for `O=C(C1=C[C@H](C2CC2)C[C@H](OCc2ccc(CO)cc2)O1)N1CCOCC1`: 15.5%; for `O=c1c2[nH]c3ccccc3c2ncn1Cc1ccncc1`: -19.8%; for `Cc1ccc(OC/C(O)=C(\C#N)c2nc3ccccc3s2)cc1`: 18%.
For `CC(C)N1CC=C(c2c[nH]c3ccccc23)CC1`, the “hERG current change (%, negative = inhibition) at 10uM” value is on record as -8.03%.
For `Cc1c(NC(=O)COC(=O)COc2ccc(Nc3ccccc3)cc2)c(=O)n(-c2ccccc2)n1C` the value was -2.4%; for `COc1ccc(-c2nc(CN3CCN(C(=O)c4ccco4)CC3)c(C)o2)c(OC)c1C`, -18%; for `Cc1ccc(C(=O)c2cc3c(cc2N)OCCO3)cc1`, -11.4%.
Turning to `CCOC(=O)C1=C(C)Nc2nnnn2C1c1cccc(OC)c1OC` (stereo not shown), the “hERG current change (%, negative = inhibition) at 10uM” value is -9.89%.
Turning to `O=C(Nn1c(-c2ccc(Br)cc2)nc2ccccc2c1=O)c1ccc([N+](=O)[O-])cc1`, the “hERG current change (%, negative = inhibition) at 10uM” value is -66.6%.
In the case of `Nc1ccn(-c2ccccc2)c(=O)c1`, the “hERG current change (%, negative = inhibition) at 10uM” value is 3.69%.
For `Cc1ccc(C)c(/C=C2\N=C(c3ccccc3F)OC2=O)c1` the value was 17.5%.
Take `Cn1c(=O)n(C)c2cc(NS(=O)(=O)c3ccc4c(c3)CCCC4)ccc21`: the “hERG current change (%, negative = inhibition) at 10uM” value is listed as -25.6%.
Consider `O=C(OCc1cc(=O)n2cc(Br)ccc2n1)C1COc2ccccc2O1` (stereo not shown), for which the “hERG current change (%, negative = inhibition) at 10uM” value was -15.5%.
On to `O=C(COC(=O)C1CCC1)NC(=O)c1ccccc1`, for which the “hERG current change (%, negative = inhibition) at 10uM” value was 17.1%.
For `COc1ccc(C2c3c(-c4ccccc4O)n[nH]c3C(=O)N2CCc2ccc(OC)c(OC)c2)cc1` (stereo not shown) the value was -10.8%; for `COc1ccc(C(=O)Nc2ccnn2C2CCN(Cc3cnn(C)c3)CC2)cc1`, 6.81%; for `N#CC1(c2ccccc2)CCC(=NNS(=O)(=O)c2ccccc2)CC1` (stereo not shown), -11%.
For `Cc1ccc(-c2nc3sc4c(c3c(=O)n2N)CCCC4)cc1` the value was -10.1%; for `COc1ccc(OC)c(NC(=O)N2CCCC(C(=O)c3ccccc3OC)C2)c1` (stereo not shown), 5.87%; for `CCOC(=O)CN1C(=O)C(=O)N(Cc2c(F)cccc2Cl)C1=O`, 17.6%.
For `CC12CCC(C(=O)Nc3cc(Cl)ccc3Cl)(C(Br)C1=O)C2(C)C` (stereo not shown) the value was 3.87%; for `CC1=NNC(=O)C1C(c1cccc(O)c1)C(C#N)C#N` (stereo not shown), 14.3%; for `CC(C)Cc1csc(NC(=O)c2ccc(F)cc2)c1C(=O)O`, 2.82%.
As to `COc1ccccc1NC(=O)C(C)OC(=O)CC1CCCCC1` (stereo not shown), the “hERG current change (%, negative = inhibition) at 10uM” value is reported as -15.7%.
For `O=C1CCSc2ccc(Cl)cc2N1Cc1ccccc1` the value was 8.99%; for `CCOC(=O)Nc1cc(C)c(Cl)cc1OC`, -3.7%.
For `COCCCn1nnnc1SCC(=O)Nc1nc(C)c(C)s1`, the “hERG current change (%, negative = inhibition) at 10uM” value is listed as 7.53%.
The same measure for `CC1=C(C)[N+](=O)C2CCCCC2N1[O-]` (stereo not shown): 0.526%.
For `O=C(c1ccc(-c2ccc(Cl)cc2)o1)N1CCN(c2ccc([N+](=O)[O-])cc2Cl)CC1` the value was 3.9%; for `NC(=O)c1oc2ccccc2c1NC(=O)CN1CCCCC1`, 13.9%.
Take `CC1CC(NC(=O)c2c(O)nc3sccn3c2=O)CC(C)(C)C1` (stereo not shown): the “hERG current change (%, negative = inhibition) at 10uM” value is listed as -10.8%.
Turning to `C/C(=N\NC(=O)CC1N=C(Cc2ccccc2)NNC1=O)c1ccncc1` (stereo not shown), the “hERG current change (%, negative = inhibition) at 10uM” value is listed as 14.7%.
Regarding `N=c1c(S(=O)(=O)c2ccccc2)cc2c(=O)n3ccccc3nc2n1CC1CCCO1` (stereo not shown), the “hERG current change (%, negative = inhibition) at 10uM” value was -34%.
Regarding `CC(C)OP(=O)(c1ccc(N(C)C)cc1)C(Nc1ccccc1)c1cccnc1` (stereo not shown), the “hERG current change (%, negative = inhibition) at 10uM” value is listed as -13.1%.
Regarding `O=C1NCCCC1C(=O)Nc1ccccn1` (stereo not shown), the “hERG current change (%, negative = inhibition) at 10uM” value is on record as 22.8%.
With `Cc1cccc(NC(=O)c2cccnc2)c1`, the “hERG current change (%, negative = inhibition) at 10uM” value is reported as -0.778%.
Take `COC(=O)CCCC1=CC2=CC(=O)C(C)(OC(=O)CCc3ccccc3)C(=O)C2=CO1` (stereo not shown): the “hERG current change (%, negative = inhibition) at 10uM” value came to 9.17%.
For the compound `CCc1ccc(CN(C)C(=O)CC2C(=O)NCCN2Cc2ccoc2)cc1` (stereo not shown), the “hERG current change (%, negative = inhibition) at 10uM” value amounted to 4.18%.
The same measure for `COc1ccc(CC(=O)Nc2c(C(=O)N3CCN(c4ncccn4)CC3)oc3ccccc23)cc1OC`: -46.8%; for `Cc1ccc(C(=O)COC(=O)CNC(=O)CN2C(=O)c3ccccc3C2=O)cc1`: 24.1%.
For `O=C(CCn1nnc(-c2cccs2)n1)NCc1ccccc1Cl` the value was -28.1%.
For the compound `CN1CCN(S(=O)(=O)c2ccc(NCc3ccc4c(c3)OCO4)nc2)CC1`, the “hERG current change (%, negative = inhibition) at 10uM” value was determined as 0.455%.
On to `Cc1ccccc1CC(=O)Nc1ccc(C(=O)N2CCCC2)cc1`, for which the “hERG current change (%, negative = inhibition) at 10uM” value was 17.2%.
As to `CN(C)S(=O)(=O)c1ccc(Cl)c(NC(=O)COC(=O)/C=C/c2ccco2)c1`, the “hERG current change (%, negative = inhibition) at 10uM” value is 16.7%.
Take `O=C(CN1C(=O)NC2(CCSC2)C1=O)NCc1ccccc1` (stereo not shown): the “hERG current change (%, negative = inhibition) at 10uM” value was found to be 13.5%.
For the compound `Cl.OC(COC(c1ccc(Cl)cc1)c1ccc(Cl)cc1)CN1CCN(c2ccccn2)CC1` (stereo not shown), the “hERG current change (%, negative = inhibition) at 10uM” value is -82.4%.
